# The BET-seq Pho4 binding data (Le et al. 2018)
# This is one part of the list. Values were computed here from the reads of four pooled replicates and scatter widely.
# Molecular target: T1, Pho4 (S. cerevisiae) (UniProt P07270)
# T1 sequence: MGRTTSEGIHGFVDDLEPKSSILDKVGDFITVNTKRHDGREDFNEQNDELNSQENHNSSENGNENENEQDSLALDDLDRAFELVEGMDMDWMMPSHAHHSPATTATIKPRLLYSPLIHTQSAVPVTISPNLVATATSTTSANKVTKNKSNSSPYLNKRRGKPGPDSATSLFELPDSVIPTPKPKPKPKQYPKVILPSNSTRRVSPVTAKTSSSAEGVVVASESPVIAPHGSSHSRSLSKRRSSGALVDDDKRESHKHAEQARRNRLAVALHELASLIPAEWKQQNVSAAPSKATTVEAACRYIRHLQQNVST
# Assay: relative binding free energy (BET-seq); higher = weaker binding
# Conditions: reference: library average
row,Sequence,relative binding free energy
1,TTTGGCACGTGGTTCA,-0.25 kcal/mol
2,TGATACACGTGCGGTT,0.03 kcal/mol
3,ATGTTCACGTGTTAAT,0.3 kcal/mol
4,TGGGGCACGTGATGCG,-0.03 kcal/mol
5,AAGGTCACGTGGATAT,0.16 kcal/mol
6,TGATTCACGTGTGGTC,0.3 kcal/mol
7,TCTGGCACGTGTGAGA,-0.05 kcal/mol
8,AGTCACACGTGATGTT,0.18 kcal/mol
9,GTAAACACGTGTTAGG,0 kcal/mol
10,AGAGGCACGTGCCGGG,-0.3 kcal/mol
11,TGGGGCACGTGGGTCT,-0.14 kcal/mol
12,ATGAACACGTGGGTTA,-0.11 kcal/mol
13,AGTAACACGTGGTTGC,-0.11 kcal/mol
14,AGAGTCACGTGTAAAT,0.37 kcal/mol
15,GTTATCACGTGGTAGC,0.06 kcal/mol
16,AGATACACGTGTTGAT,-0.06 kcal/mol
17,TGTCACACGTGCTGTG,-0.05 kcal/mol
18,GTGACCACGTGTGGTG,0.11 kcal/mol
19,AGGCACACGTGGTTGA,-0.03 kcal/mol
20,GAAATCACGTGATTGT,0.47 kcal/mol
21,TTTTACACGTGCGGCG,0.19 kcal/mol
22,TTTAGCACGTGACTGA,0.08 kcal/mol
23,TGTTCCACGTGGGGAT,-0.14 kcal/mol

row,Sequence,relative binding free energy
1,TTATACACGTGCGTTT,-0.17 kcal/mol
2,TGGGTCACGTGGAATA,0.22 kcal/mol
3,CTGTGCACGTGGCGGA,-0.13 kcal/mol
4,TTGACCACGTGGTATG,-0.08 kcal/mol
5,ACGGTCACGTGTTATG,0.1 kcal/mol
6,GCTGACACGTGCGTGG,-0.02 kcal/mol
7,AGGAACACGTGGACTG,0.21 kcal/mol
8,TTGTACACGTGTGATA,0.09 kcal/mol
9,GTAGGCACGTGTCTTG,-0.1 kcal/mol
10,GTGGGCACGTGGATGA,0.04 kcal/mol
11,AGGTACACGTGATGGG,0.11 kcal/mol
12,TGGGACACGTGATTAG,0.09 kcal/mol
13,TGTGGCACGTGCCATG,-0.21 kcal/mol
14,GGGTACACGTGTGAGC,0.11 kcal/mol
15,TATTTCACGTGGGGTC,0.24 kcal/mol
16,GATGGCACGTGTATGG,0.11 kcal/mol
17,TCTGTCACGTGGTGGG,0.09 kcal/mol
18,TTGCGCACGTGAGTCT,0.28 kcal/mol
19,AGGGTCACGTGTCTAG,0.23 kcal/mol
20,AGTGTCACGTGATATC,0.26 kcal/mol
21,GGCGGCACGTGGGGGT,-0.13 kcal/mol
22,GGTATCACGTGCCGGT,0.17 kcal/mol
23,ATAGTCACGTGTAGCT,0.08 kcal/mol

row,Sequence,relative binding free energy
1,GTAGACACGTGTTTTA,0.05 kcal/mol
2,GTGTTCACGTGCTAAG,0.34 kcal/mol
3,GTAATCACGTGGGATA,0.07 kcal/mol
4,ATGTTCACGTGGGGGA,0.05 kcal/mol
5,GTTTTCACGTGGGTTT,0.26 kcal/mol
6,TATTACACGTGTATGT,0.08 kcal/mol
7,TTAGGCACGTGACTAT,-0.08 kcal/mol
8,TATCACACGTGTGGTG,0.01 kcal/mol
9,TGTTGCACGTGAAGTT,0.27 kcal/mol
10,AGTGGCACGTGGACGA,-0.05 kcal/mol
11,GGCATCACGTGGTGGG,0.07 kcal/mol
12,ATGTTCACGTGAAGGG,0.31 kcal/mol
13,TGTAACACGTGGTCGG,-0.22 kcal/mol
14,TTCGTCACGTGACATT,0.44 kcal/mol
15,GGTGCCACGTGCGGCG,-0.14 kcal/mol
16,TTCTTCACGTGGTTGG,0.23 kcal/mol
17,AGAGTCACGTGGCTTA,0.12 kcal/mol
18,CTCTTCACGTGGGGTT,0.16 kcal/mol
19,TTGTTCACGTGCTTTG,0.16 kcal/mol
20,ATGGTCACGTGTTATA,0.05 kcal/mol
21,GTCGGCACGTGCAGTG,0 kcal/mol
22,GAGTGCACGTGCTGTT,-0.01 kcal/mol
23,AGTTTCACGTGCCTGT,0.24 kcal/mol

row,Sequence,relative binding free energy
1,TAGGGCACGTGATAAG,-0.09 kcal/mol
2,CTCTTCACGTGTGGGT,0.22 kcal/mol
3,TTTTTCACGTGCATCT,0.23 kcal/mol
4,TGAGACACGTGTTGAC,0.24 kcal/mol
5,GTTCTCACGTGAAGTG,0.34 kcal/mol
6,GGGTGCACGTGGTCTA,-0.09 kcal/mol
7,ACGGGCACGTGAGGTA,0.09 kcal/mol
8,TTTGTCACGTGTTTGG,0.15 kcal/mol
9,TTGCACACGTGGGGTG,-0.13 kcal/mol
10,TGGTACACGTGGTACA,0.05 kcal/mol
11,GTGTACACGTGGGAAA,-0.09 kcal/mol
12,CTGTACACGTGTGGAG,0.06 kcal/mol
13,AGATGCACGTGGCGGT,-0.21 kcal/mol
14,TTACGCACGTGTGGTG,-0.15 kcal/mol
15,CTGGTCACGTGTTTTC,0.19 kcal/mol
16,TTGTTCACGTGACTGG,0.22 kcal/mol
17,CGGTGCACGTGGAAGT,-0.06 kcal/mol
18,TGGCGCACGTGATTAG,-0.01 kcal/mol
19,GTTGACACGTGTGGCT,0.11 kcal/mol
20,TTGAACACGTGTATAT,0.08 kcal/mol
21,ATGGACACGTGTTGGT,0.07 kcal/mol
22,TGTGACACGTGTTTTG,0.12 kcal/mol
23,TGTTGCACGTGTTGTA,0.04 kcal/mol

row,Sequence,relative binding free energy
1,TGTGCCACGTGAGGAT,0.08 kcal/mol
2,TGAGACACGTGTTTGA,-0.15 kcal/mol
3,TAGTGCACGTGAGTGA,0.07 kcal/mol
4,TTTGGCACGTGAGCGT,-0.01 kcal/mol
5,GATGTCACGTGCGAGG,0 kcal/mol
6,AACGTCACGTGTTATT,0.2 kcal/mol
7,GTCCACACGTGGGGTG,0.03 kcal/mol
8,AATGGCACGTGGGGCA,-0.19 kcal/mol
9,GGGACCACGTGTGTTT,0.15 kcal/mol
10,GAAAGCACGTGGGTGA,-0.16 kcal/mol
11,CAAGTCACGTGTAGTG,0.28 kcal/mol
12,AAAGGCACGTGAGGCT,0.05 kcal/mol
13,CGTTGCACGTGCTAGG,-0.1 kcal/mol
14,TTTGTCACGTGCGGCG,0 kcal/mol
15,GTGGTCACGTGTCAAG,0.2 kcal/mol
16,ATTCGCACGTGTGGAG,-0.08 kcal/mol
17,TTTTGCACGTGATTCT,0.08 kcal/mol
18,ATGTGCACGTGCGCTT,-0.11 kcal/mol
19,AGTATCACGTGTAGAG,0.16 kcal/mol
20,GTATGCACGTGACGTG,0.12 kcal/mol
21,GTAGTCACGTGAGCGG,0.42 kcal/mol
22,ATCGTCACGTGCGGTG,0.05 kcal/mol
23,TGATACACGTGCATGT,0.04 kcal/mol
